Inconclusive means that the source gave no clear call. Such entries were picked first, then a sample of the others. For part of these data: A potency beside an inconclusive call is a rough fit, not a confirmed value. Calls of active or inactive are those of the source. Unless noted, the call rests on the fitted dose curve; in most records, active means well fitted curve in the direction sought with a large enough effect; inconclusive means small, poorly fitted or top-dose-only effect, or another doubt; inactive means no such curve, though single readings can be large; an effect the other way counts as inactive or inconclusive.
What was measured:
[1] = AP1 Signaling Pathway (AID 357; active means well fitted curve in either direction with a large enough effect, not every such curve was filed as active; inconclusive means small, poorly fitted or top-dose-only effect, or another doubt;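 further: ME-180 reporter cells stimulated with EGF at its EC50 level; top concentration of the series differs between compounds; on the % scale 0 is the no-effect control and ±100 the full control effect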); conditions: ME-180 AP-1-bla reporter, EGF-induced, beta-lactamase ratio, 5 h; at 17.2 µM (top of the series) unless noted
Method in brief: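 Cells are seeded overnight, exposed to compound titrations and an EC50 level of EGF for 5 hours at 37 °C, then loaded with CCF4 dye for 2.5 hours. Beta-lactamase activity under the AP-1 element is read as a blue/green ratio.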

[2] = target: Cytochrome P450 1A2 (Homo sapiens) (UniProt P05177); assay: p450-cyp1a2 (AID 410; calls by dose curve; further: potency means the concentration at half of the fitted maximal effect;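 on activity change, negative = inhibition: top concentration of the series differs between compounds; -100% = full effect of reference inhibitor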)
Method in brief: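 20nM CYP1A2 with 100uM Luciferin-ME (at Km) in 100mM KPO4; compound preincubated 10 min, NADPH regeneration added, 60 min at room temperature. Luciferin quantified by luminescence after detection reagent; normalized to 57 uM furafylline.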

[3] = qHTS Assay for Identification of Small Molecule Agonists for Hypoxia Response Element Signaling Pathway (AID 914; active means well fitted activation curve with a large enough effect in the signal ratio, with a control signal flat, not every such curve was filed as active; inconclusive means small, poorly fitted or top-dose-only effect, or effect the other way, or a change in a side signal; the % refers to the signal ratio; further: top concentration of the series differs between compounds; % of control where 0% means no effect); conditions: ME-180 (cervical carcinoma) HRE-bla reporter, beta-lactamase ratio, CoCl2, 17 h; activation: stronger effect = higher value
Method in brief: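 HRE-bla ME-180 cells with beta-lactamase reporter under hypoxia response element, compounds with EC50 CoCl2 for 17 hours at 37 C. CCF4 substrate, 460nm/530nm emission ratio gave %Activity; AC50 from titration series.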

[4] = Primary qHTS for small molecule stabilizers of the endoplasmic reticulum resident proteome: Secreted ER Calcium Modulated Protein (SERCaMP) assay (AID 1508630); conditions: SH-SY5Y GLuc-SERCaMP (Gaussia luciferase released on ER calcium loss) secretion, thapsigargin, luminescence; activity change, negative = inhibition: at 38.4 µM (top of the series); further: potency means the concentration at half of the fitted maximal effect; on activity change, negative = inhibition: on the % scale 0 is the no-effect control and ±100 the full control effect
Method in brief: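 GLuc-SERCaMP-expressing SH-SY5Y cells, pretreated 16 h with compound, are challenged with thapsigargin to empty ER calcium stores; after 4 h, coelenterazine is added directly to the medium and luminescence is imaged.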

[5] = target: 3',5'-cyclic-AMP phosphodiesterase 4B (Homo sapiens) (UniProt Q07343); assay: qHTS Assay for Inhibitors of PDE-IV (AID 607; active means well fitted activation curve with a large enough effect in the main read-out, with a control signal flat, not every such curve was filed as active; inconclusive means small, poorly fitted or top-dose-only effect, or effect the other way, or a change in a side signal; further: potency means the concentration at half of the fitted maximal effect); conditions: HEK293 ACTOne CNG channel cells, membrane potential fluorescence; activation (PDE inhibition): at 22.9 µM (top of the series)
Method in brief: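 The readout is membrane depolarisation from a cAMP-sensing CNG channel, detected with a potential dye at ex 535/em 590. Cells were HEK293-derived (endogenous PDE-IV) at 1000 cells/well, titrated up to 22.9 uM final.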

[6] = qHTS Assay for Identification of Small Molecule Antagonists for NFkB Signaling Pathway (AID 895; active means well fitted inhibition curve with a large enough effect in the signal ratio, with a control signal flat, not every such curve was filed as active; inconclusive means small, poorly fitted or top-dose-only effect, or effect the other way, or a change in a side signal; the % refers to the signal ratio; further: potency means the concentration at half of the fitted maximal effect); conditions: NFkB beta-lactamase reporter cells, FRET ratio 460/530; activity change, negative = inhibition: at 38.3 µM (top of the series) unless noted
Method in brief: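 Beta-lactamase reporter read-out (460 and 530 nm emission ratio, 405 nm excitation, 2 hrs substrate loading RT) after 5 hr stimulation with 10 pM TNF alpha in compound-treated NFkB-bla ME-180 cells in low-serum medium.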

[7] = qHTS Assay for Identification of Small Molecule Antagonists for Thrombopoietin (TPO) Signaling Pathway (AID 918); conditions: TPO-dependent cell signaling reporter, antagonist mode; activity change, negative = inhibition: at 38.5 µM (top of the series); further: nearly all actives have a fitted effect of over 60% in size
Method in brief: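 Murine Ba/F3 cells expressing human TPO receptor and a Glycoprotein IIb promoter-luciferase reporter, IL-3-starved overnight, treated with compound plus TPO at EC50 (26 pM final). After 24 h at 37 C, luminescence read to detect inhibitors.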

[8] = target: Muscarinic acetylcholine receptor M1 (Rattus norvegicus) (UniProt P08482); assay: qHTS Assay for Antagonists of Acetylcholine Muscarinic M1 Receptor: Kinetic Measurement of Intracellular Calcium Response (AID 943); further: nearly all actives have a fitted effect of over 75% in size
Method in brief: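 CHO cells expressing rat M1 receptor, Fluo-4 loaded, preincubated 10 min with compound, then stimulated with EC80 carbachol (100 nM final). Kinetic calcium fluorescence over 4 min; response taken as peak over basal signal.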

[9] = target: Muscarinic acetylcholine receptor M1 (Rattus norvegicus) (UniProt P08482); assay: qHTS Assay for Antagonists of Acetylcholine Muscarinic M1 Receptor: Measurement of IP-One Response (AID 944); further: nearly all actives have a fitted effect of over 75% in size
[10] = target: Ubiquitin carboxyl-terminal hydrolase 1 (Homo sapiens) (UniProt O94782); assay: Inhibitors of USP1/UAF1: Pilot qHTS (AID 504865);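 further: rhodamine fluorescence freed from ubiquitin-rhodamine substrate followed over time; potency means the concentration at half of the fitted maximal effect; nearly all actives have a fitted effect of over 35% in size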
Method in brief: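 Enzyme-free wells gave the negative control, while test wells held 1nM USP1/UAF1 preincubated with compound for 15 min at room temperature. Ub-Rho at 150nM final started the reaction, and fluorescence at 480/540 nm was recorded kinetically.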

[11] = target: Rap guanine nucleotide exchange factor 4 (Homo sapiens) (UniProt Q8WZA2); assay: Confirmatory qHTS for antagonist of cAMP-regulated guanine nucleotide exchange factor 4 (EPAC2) (AID 1645885); conditions: activity change, negative = inhibition: at 114 µM (top of the series) unless noted; further: potency means the concentration at half of the fitted maximal effect; nearly all actives have a fitted effect of over 25% in size
[12] = target: Cytochrome P450 2C9 (Homo sapiens) (UniProt P11712); assay: qHTS Assay for Inhibitors and Substrates of Cytochrome P450 2C9 (AID 883); further: on the % scale 0 is the no-effect control and ±100 the full control effect; nearly all actives have a fitted effect of over 60% in size
Method in brief: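 Luminescent read-out of deoxyluciferin hydroxylation, normalized to 57uM sulphaphenazole (AC100). Reaction: 10nM enzyme, 100uM Luciferin-H (equal to KM), 25mM KPO4, 10 min compound preincubation, then 60 min with NADPH regeneration, both at 37C.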

[13] = qHTS for differential inhibitors of proliferation of Plasmodium falciparum line GB4 (AID 1816); conditions: Potency: Plasmodium falciparum GB4 proliferation inhibition;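 further: parasite growth measured after 72 h incubation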; further: potency means the concentration at half of the fitted maximal effect;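 on activity change, negative = inhibition: 0% = vehicle DMSO and -100% = reference inhibitor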
[14] = qHTS for differential inhibitors of proliferation of Plasmodium falciparum line W2 (AID 1883); conditions: Potency: Plasmodium falciparum W2 proliferation inhibition;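 further: potency means the concentration at half of the fitted maximal effect; parasites grown with compound for 72 h before lysis and staining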
[15] = target: RecQ-like DNA helicase BLM (Homo sapiens) (UniProt P54132); assay: qHTS Validation Assay for Inhibitors of Bloom's syndrome helicase (BLM) (AID 2364);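 further: plate controls were DMSO vehicle for no effect and enzyme-free control for full effect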
Method in brief: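 Forked 20-bp duplex substrate (200 nM, TAMRA/BHQ-2) plus 2 mM ATP added after 15 min compound preincubation with 50 nM enzyme, pH 8.0, poly(dI-dC) 2.5 ug/ml. Strand separation followed by fluorescence (525/598 nm) over 2 h, normalized to enzyme-free and DMSO controls.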

[16] = target: Transient receptor potential cation channel subfamily V member 1 (Homo sapiens) (UniProt Q8NER1); assay: HTS Assay for Compounds that Act as Enhancers of the Vanilloid Receptor 1 (AID 488979); further: 0% is about no effect
Method in brief: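 Calcium influx kinetics via Fluo-8 (480/520 nm) in TRPV1-expressing cells, 2000/well cultured overnight at 35.5C. Compound-alone read 3 min (agonist phase), followed by EC20 capsaicin challenge for 2 min (enhancer phase).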

[17] = qHTS Assay for Modulators of Human Peripheral Myelin Protein 22 (PMP22) Expression/Activity (AID 1967; active means well fitted curve in the direction sought with a large enough effect in the signal ratio; inconclusive means small, poorly fitted or top-dose-only effect, or effect the other way, or a change in a side signal; inactive means no such curve, though single readings can be large or run the other way; the % refers to the signal ratio;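 further: 0% = untreated cells and 100% end not stated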); conditions: Cell-based PMP22 reporter, dual-color luciferase ratio, mouse Pmp22 promoter in mouse Schwann cells; activity change (ratio): at 115 µM (top of the series)
Method in brief: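 Engineered MSC80 cells, Pmp22-promoter green and EF-alpha red luciferase reporters; 24h compound treatment at 37 °C. Concentration-response fits on green, red and ratio signals, each overlap-corrected, with %Activity normalized to untreated wells.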

[18] = Quantitative high throughput screen for delayed death inhibitors of the malarial parasite plastid, 96 hour incubation (AID 488745); further: potency means the concentration at half of the fitted maximal effect; nearly all actives have a fitted effect of over 70% in size
Method in brief: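 Luciferase-expressing P. falciparum in erythrocytes (2% hematocrit, 0.1% parasitemia) incubated with compound for 96 h at 37 C, 5% CO2, in RPMI 1640 with 0.5% Albumax. Growth inhibition read as decreased luminescence.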

[19] = NFAT Signaling Pathway (AID 444; active means well fitted curve in either direction with a large enough effect, not every such curve was filed as active; inconclusive means small, poorly fitted or top-dose-only effect, or another doubt;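 further: carbachol stimulus at about its EC50 of 1 µM final; on the % scale 0 is the no-effect control and ±100 the full control effect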); conditions: Jurkat NFAT-bla M1, carbachol, beta-lactamase ratio, 5 h; at 7.69 µM (top of the series) unless noted
Method in brief: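 Read-out: CCF4 FRET ratio (460 nm/530 nm) after 1 h RT dye loading, used for %activity and AC50 from titration series. Cells: Jurkat NFAT-β-lactamase/M1 line, treated with compound plus 1 uM carbachol for 5 h, 37 °C.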

[20] = target: Mitogen-activated protein kinase 10 (Mus musculus) (UniProt Q61831); assay: JNK3 AlphaScreen Assay (AID 530; active means well fitted curve in either direction with a large enough effect, not every such curve was filed as active; inconclusive means small, poorly fitted or top-dose-only effect, or another doubt;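 further: kinase came from lysate of stimulated human HepG2 cells; signal reports phosphorylation of biotinylated GST-cJun 1-79 at Ser73 with 10 µM ATP; potency means the concentration at half of the fitted maximal effect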); conditions: JNK3 lysate, c-Jun phosphorylation; activity change, negative = inhibition: at 57.1 µM (top of the series)
Method in brief: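 Compound titrations were preincubated 15 minutes at room temperature with substrate, antibody and pre-activated JNK3-containing HepG2 lysate. Reactions were started with 10 uM ATP and stopped with EDTA-containing bead buffer for AlphaScreen detection.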

[21] = qHTS Assay for Lipid Storage Modulators (AID 1519; calls by dose curve; further: on the % scale 0 is the no-effect control and ±100 the full control effect); conditions: Drosophila S3 cells, BODIPY lipid droplet/cell ratio, laser cytometry, cells loaded with oleic acid; activity change, negative = inhibition: at 57.5 µM (top of the series) unless noted
Method in brief: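 Cells seeded at 5,000 per well were treated with compounds over a concentration series and loaded with oleic acid (400 uM, as added). Lipid droplet fluorescence (488 nm excitation, 500-530 nm channel) was read by laser-scanning cytometry and normalized to 20 uM Triacsin C.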
Tags describe the fitted curve by direction and shape or compound fluorescence and quenching.

Chain of UniProt Q07343 (Q07343 whole entry, looked up): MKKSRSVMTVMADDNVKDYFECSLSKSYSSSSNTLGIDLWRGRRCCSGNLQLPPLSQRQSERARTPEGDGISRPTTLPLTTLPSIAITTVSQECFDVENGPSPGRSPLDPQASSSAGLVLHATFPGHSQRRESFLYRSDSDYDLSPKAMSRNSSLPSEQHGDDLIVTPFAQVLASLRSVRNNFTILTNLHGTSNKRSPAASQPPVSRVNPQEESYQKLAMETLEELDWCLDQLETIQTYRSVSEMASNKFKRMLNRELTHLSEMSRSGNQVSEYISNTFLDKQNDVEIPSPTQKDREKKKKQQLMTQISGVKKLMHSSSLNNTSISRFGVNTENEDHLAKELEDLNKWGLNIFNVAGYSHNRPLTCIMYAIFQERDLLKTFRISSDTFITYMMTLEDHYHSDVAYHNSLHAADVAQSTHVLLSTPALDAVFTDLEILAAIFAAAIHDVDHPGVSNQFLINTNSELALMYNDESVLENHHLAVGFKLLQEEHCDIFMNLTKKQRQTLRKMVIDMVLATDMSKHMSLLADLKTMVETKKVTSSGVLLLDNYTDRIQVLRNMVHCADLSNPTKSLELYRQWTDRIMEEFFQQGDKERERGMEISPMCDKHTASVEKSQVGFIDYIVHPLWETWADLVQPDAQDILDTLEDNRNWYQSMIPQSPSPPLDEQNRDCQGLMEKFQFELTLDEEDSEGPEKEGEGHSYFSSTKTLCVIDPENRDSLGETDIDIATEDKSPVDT
Chain of UniProt P08482 (P08482 whole entry, looked up): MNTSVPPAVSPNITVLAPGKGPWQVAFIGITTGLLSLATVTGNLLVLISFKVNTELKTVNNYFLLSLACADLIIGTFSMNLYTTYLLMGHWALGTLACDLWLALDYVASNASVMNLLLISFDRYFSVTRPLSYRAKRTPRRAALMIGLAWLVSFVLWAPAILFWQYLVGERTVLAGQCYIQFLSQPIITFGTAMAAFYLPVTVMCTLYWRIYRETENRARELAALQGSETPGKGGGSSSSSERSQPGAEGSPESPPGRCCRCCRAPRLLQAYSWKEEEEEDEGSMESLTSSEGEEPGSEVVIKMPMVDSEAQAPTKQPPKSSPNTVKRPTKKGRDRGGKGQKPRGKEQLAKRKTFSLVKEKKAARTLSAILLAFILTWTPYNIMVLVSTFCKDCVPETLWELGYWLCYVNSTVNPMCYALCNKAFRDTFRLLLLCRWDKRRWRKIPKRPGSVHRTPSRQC
Chain of UniProt P05177 (P05177 whole entry, looked up): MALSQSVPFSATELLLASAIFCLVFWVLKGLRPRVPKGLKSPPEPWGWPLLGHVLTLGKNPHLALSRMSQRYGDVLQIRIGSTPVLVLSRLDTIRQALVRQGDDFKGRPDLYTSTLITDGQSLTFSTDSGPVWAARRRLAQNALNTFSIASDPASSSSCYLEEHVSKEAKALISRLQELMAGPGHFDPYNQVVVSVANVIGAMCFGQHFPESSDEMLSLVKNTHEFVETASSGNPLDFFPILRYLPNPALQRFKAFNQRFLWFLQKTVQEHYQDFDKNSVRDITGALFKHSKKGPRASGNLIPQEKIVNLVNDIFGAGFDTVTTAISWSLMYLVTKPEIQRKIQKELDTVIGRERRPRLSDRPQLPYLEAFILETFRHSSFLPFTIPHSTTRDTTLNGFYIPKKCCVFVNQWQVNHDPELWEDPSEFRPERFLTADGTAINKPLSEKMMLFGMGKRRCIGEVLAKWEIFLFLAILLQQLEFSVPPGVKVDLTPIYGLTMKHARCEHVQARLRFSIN
Chain of UniProt P54132 (P54132 whole entry, looked up): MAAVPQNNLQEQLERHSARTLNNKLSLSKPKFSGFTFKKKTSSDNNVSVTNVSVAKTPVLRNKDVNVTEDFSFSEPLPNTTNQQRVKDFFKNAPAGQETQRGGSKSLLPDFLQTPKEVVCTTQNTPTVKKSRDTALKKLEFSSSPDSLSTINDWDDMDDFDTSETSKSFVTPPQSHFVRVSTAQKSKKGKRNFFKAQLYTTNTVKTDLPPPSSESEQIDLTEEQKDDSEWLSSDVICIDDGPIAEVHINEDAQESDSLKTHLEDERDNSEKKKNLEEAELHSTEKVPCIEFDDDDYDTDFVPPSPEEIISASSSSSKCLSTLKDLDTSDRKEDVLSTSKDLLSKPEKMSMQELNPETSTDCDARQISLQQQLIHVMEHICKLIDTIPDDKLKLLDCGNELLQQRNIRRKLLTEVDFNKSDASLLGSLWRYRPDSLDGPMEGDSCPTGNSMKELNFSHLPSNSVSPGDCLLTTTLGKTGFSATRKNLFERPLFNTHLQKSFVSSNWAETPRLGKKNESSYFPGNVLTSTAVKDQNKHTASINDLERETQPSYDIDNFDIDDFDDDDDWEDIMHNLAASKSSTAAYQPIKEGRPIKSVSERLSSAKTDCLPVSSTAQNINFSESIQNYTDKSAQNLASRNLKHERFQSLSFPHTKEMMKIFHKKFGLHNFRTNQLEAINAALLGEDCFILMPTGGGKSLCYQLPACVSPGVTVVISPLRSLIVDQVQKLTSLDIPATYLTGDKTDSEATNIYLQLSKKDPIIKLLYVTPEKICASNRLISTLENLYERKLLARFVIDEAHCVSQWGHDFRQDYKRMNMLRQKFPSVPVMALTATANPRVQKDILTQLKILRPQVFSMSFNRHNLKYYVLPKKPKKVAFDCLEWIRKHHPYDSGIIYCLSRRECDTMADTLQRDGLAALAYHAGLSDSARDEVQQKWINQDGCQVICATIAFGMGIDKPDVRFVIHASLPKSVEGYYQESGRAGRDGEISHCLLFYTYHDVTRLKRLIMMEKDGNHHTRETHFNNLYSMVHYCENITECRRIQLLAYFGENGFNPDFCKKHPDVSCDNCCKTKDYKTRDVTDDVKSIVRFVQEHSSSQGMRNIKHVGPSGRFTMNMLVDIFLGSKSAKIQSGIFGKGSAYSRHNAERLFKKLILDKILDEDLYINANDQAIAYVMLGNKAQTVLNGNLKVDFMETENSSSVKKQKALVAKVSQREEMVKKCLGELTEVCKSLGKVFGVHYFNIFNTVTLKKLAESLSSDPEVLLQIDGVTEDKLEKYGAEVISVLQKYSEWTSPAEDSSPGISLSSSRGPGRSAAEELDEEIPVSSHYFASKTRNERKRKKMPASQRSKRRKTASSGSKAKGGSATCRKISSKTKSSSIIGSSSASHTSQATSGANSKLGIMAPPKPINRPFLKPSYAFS
Chain of UniProt Q8WZA2 (Q8WZA2 whole entry, looked up): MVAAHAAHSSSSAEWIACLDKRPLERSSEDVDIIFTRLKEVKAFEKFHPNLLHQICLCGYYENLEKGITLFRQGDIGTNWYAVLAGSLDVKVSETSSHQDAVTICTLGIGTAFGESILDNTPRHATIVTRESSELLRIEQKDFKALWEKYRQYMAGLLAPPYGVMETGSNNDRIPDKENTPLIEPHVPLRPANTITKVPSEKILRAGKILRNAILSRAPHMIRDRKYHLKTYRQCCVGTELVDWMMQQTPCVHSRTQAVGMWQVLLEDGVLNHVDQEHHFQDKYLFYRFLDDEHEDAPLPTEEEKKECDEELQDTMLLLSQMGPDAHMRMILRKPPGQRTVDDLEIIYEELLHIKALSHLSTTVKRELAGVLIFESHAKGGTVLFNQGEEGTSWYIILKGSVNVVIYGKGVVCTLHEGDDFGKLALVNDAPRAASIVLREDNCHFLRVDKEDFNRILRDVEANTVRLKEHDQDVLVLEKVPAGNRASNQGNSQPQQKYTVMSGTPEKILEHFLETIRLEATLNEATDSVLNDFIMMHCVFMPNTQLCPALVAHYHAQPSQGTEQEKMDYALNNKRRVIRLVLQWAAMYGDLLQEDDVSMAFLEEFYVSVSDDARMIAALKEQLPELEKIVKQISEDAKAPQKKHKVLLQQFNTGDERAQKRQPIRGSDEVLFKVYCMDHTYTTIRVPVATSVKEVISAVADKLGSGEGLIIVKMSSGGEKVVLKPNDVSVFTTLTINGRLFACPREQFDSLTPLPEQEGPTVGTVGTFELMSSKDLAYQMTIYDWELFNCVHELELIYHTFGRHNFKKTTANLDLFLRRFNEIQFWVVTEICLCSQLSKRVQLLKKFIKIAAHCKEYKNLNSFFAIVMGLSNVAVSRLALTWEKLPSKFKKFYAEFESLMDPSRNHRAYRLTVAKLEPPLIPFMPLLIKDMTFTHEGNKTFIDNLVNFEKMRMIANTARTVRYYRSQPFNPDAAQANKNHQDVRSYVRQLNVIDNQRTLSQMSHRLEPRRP
Chain of UniProt O94782 (O94782 whole entry, looked up): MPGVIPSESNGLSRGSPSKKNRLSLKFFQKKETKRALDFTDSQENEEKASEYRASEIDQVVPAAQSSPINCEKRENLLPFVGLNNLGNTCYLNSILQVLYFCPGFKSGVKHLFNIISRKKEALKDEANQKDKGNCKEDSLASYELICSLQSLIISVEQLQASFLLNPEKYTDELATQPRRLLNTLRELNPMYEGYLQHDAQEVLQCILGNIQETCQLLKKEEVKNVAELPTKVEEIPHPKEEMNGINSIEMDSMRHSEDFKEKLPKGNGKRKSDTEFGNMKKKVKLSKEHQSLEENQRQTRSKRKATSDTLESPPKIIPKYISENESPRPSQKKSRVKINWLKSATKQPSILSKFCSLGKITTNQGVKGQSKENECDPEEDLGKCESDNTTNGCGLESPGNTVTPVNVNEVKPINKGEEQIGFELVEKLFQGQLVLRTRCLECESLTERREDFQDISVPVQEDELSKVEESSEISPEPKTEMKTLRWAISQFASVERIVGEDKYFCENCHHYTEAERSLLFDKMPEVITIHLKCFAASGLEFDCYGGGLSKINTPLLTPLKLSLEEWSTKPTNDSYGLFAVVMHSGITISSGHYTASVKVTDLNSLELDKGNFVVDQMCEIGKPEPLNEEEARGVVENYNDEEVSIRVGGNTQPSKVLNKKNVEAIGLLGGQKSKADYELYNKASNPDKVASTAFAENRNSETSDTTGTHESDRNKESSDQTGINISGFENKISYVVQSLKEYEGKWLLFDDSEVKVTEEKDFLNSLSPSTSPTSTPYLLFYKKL

CC(C)CN1CC2(CCN(C(=O)Oc3ccccc3)CC2)C1
inactive: activity change, negative = inhibition [1] -4% [at 7.69 µM] | Potency [2] | activation [3] -12.9% | Potency [4]

N[C@H](CP(=O)(O)O)C(=O)O
inconclusive: Potency [2] 31.6 µM [decreasing] | Potency [5] 19 µM [inhibitor, single point] | Potency [6] 25.1 µM [inhibitor, single point] | activity change, negative = inhibition [7] -15.3% [phenotype inactive]
inactive: Potency [8] | Potency [9] | Potency [4]

CCCn1c(C)c(C(=O)c2cccc3ccccc23)c2ccccc21
inactive: Potency [4]
inconclusive: Potency [5] 15.1 µM [rising, partial curve] | Potency [10] 20 µM [inhibitor, partial curve] | Potency [11] 15.6 µM [inhibitor, full curve, poor fit]

COc1ccc2[nH]cc(CCN(C)C)c2c1
inconclusive: activity change, negative = inhibition [1] 49.2% [activator] [at 38 µM] | activity change, negative = inhibition [7] -10.6% [phenotype inactive] | Potency [13] 11.2 µM [inhibitor, partial curve] | Potency [14] 7.08 µM [inhibitor, partial curve, poor fit] | Potency [4] 10 µM [inhibitor, partial curve, poor fit]
inactive: Potency [12] | Potency [6] | Potency [15] | Potency [16]

C[N+]1(C)CCc2cc3c(cc2C1C1OC(=O)c2c1ccc1c2OCO1)OCO3 (stereo not drawn)
inactive: Potency [13] | Potency [17]
inconclusive: Potency [14] 12.6 µM [inhibitor, partial curve] | Potency [18] 18.5 µM [inhibitor, single point] | Potency [4] 31.6 µM [inhibitor, partial curve, poor fit]

O=C(Nc1ccccc1)N1CCCC2(CCN(C(=O)Oc3ccccc3)CC2)C1
inactive: Potency [4]
inconclusive: activity change, negative = inhibition [19] -42.1% [inhibitor] | Potency [20] 15.8 µM [inhibitor, partial curve] | activity change, negative = inhibition [21] 7.56%

Reference: PubChem BioAssay (NCATS)
